# Experimental data published in the supplement of paper PMC8728848.
# This is one part of the list.
# Experiments:
# Assay in all cases: glycan array binding signal (z-score within array); higher = stronger binding
# Conditions in all cases: glycan notation: IUPAC condensed, linker removed
# Neu5Ac(a2-3)Gal = biological target: Neu5Ac(a2-3)Gal
# In short: (§1)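 From the Consortium for Functional Glycomics database, 3228 arrays were curated, keeping only those whose protein sequence was available. Binding is given as a within-array Z-score averaged across arrays sharing a protein sequence and across linkers. Negative Z-scores can be read as non-binding.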
# [1] = biological target: Neu5Ac(a2-3)Gal(b1-3)GalNAc
# In short: as §1
# [2] = biological target: Neu5Ac(a2-3)Gal(b1-3)GalNAc(b1-3)Gal(a1-4)Gal(b1-4)Glc
# In short: as §1
# [3] = biological target: Neu5Ac(a2-3)Gal(b1-3)GalNAc(b1-4)Gal(b1-4)Glc
# In short: as §1
# [4] = biological target: Neu5Ac(a2-3)Gal(b1-3)GalNAc(b1-4)[Neu5Ac(a2-3)]Gal(b1-4)Glc
# In short: as §1
# [5] = biological target: Neu5Ac(a2-3)Gal(b1-3)GalNAc(b1-4)[Neu5Ac(a2-8)Neu5Ac(a2-3)]Gal(b1-4)Glc
# In short: as §1
# [6] = biological target: Neu5Ac(a2-3)Gal(b1-3)GalNAc6S
# In short: as §1
# [7] = biological target: Neu5Ac(a2-3)Gal(b1-3)GlcNAc
# In short: as §1
# [8] = biological target: Neu5Ac(a2-3)Gal(b1-3)GlcNAc(b1-2)Man
# In short: as §1
# [9] = biological target: Neu5Ac(a2-3)Gal(b1-3)GlcNAc(b1-2)Man(a1-3)[GlcNAc(b1-4)][Neu5Ac(a2-3)Gal(b1-3)GlcNAc(b1-2)Man(a1-6)]Man(b1-4)GlcNAc(b1-4)GlcNAc
# In short: as §1
# [10] = biological target: Neu5Ac(a2-3)Gal(b1-3)GlcNAc(b1-2)Man(a1-3)[Neu5Ac(a2-3)Gal(b1-3)GlcNAc(b1-2)Man(a1-6)]Man(b1-4)GlcNAc(b1-4)GlcNAc
# In short: as §1
# [11] = biological target: Neu5Ac(a2-3)Gal(b1-3)GlcNAc(b1-2)[Neu5Ac(a2-3)Gal(b1-3)GlcNAc(b1-4)]Man(a1-6)[Neu5Ac(a2-3)Gal(b1-3)GlcNAc(b1-2)Man(a1-3)]Man(b1-4)GlcNAc(b1-4)GlcNAc
# In short: as §1
# [12] = biological target: Neu5Ac(a2-3)Gal(b1-3)GlcNAc(b1-3)Gal(b1-3)GlcNAc
# In short: as §1
# [13] = biological target: Neu5Ac(a2-3)Gal(b1-3)GlcNAc(b1-3)Gal(b1-4)GlcNAc
# In short: as §1
# [14] = biological target: Neu5Ac(a2-3)Gal(b1-3)GlcNAc(b1-3)GalNAc
# In short: as §1
# [15] = biological target: Neu5Ac(a2-3)Gal(b1-3)GlcNAc(b1-4)Gal(b1-4)Glc
# In short: as §1
# [16] = biological target: Neu5Ac(a2-3)Gal(b1-3)GlcNAc(b1-6)GalNAc
# In short: as §1
# [17] = biological target: Neu5Ac(a2-3)Gal(b1-3)GlcNAc6S
# In short: as §1
# [18] = biological target: Neu5Ac(a2-3)Gal(b1-3)[Fuc(a1-4)]GlcNAc
# In short: as §1
# [19] = biological target: Neu5Ac(a2-3)Gal(b1-3)[Fuc(a1-4)]GlcNAc(b1-3)Gal(b1-3)[Fuc(a1-4)]GlcNAc
# In short: as §1
# [20] = biological target: Neu5Ac(a2-3)Gal(b1-3)[Fuc(a1-4)]GlcNAc(b1-3)Gal(b1-4)[Fuc(a1-3)]GlcNAc
# In short: as §1
# [21] = biological target: Neu5Ac(a2-3)Gal(b1-3)[GlcNAc(b1-6)]GalNAc
# In short: as §1
# [22] = biological target: Neu5Ac(a2-3)Gal(b1-3)[Neu5Ac(a2-6)]GalNAc
# In short: as §1
# [23] = biological target: Neu5Ac(a2-3)Gal(b1-3)[Neu5Ac(a2-6)]GlcNAc(b1-3)[Fuc(a1-3)[Gal(b1-4)]GlcNAc(b1-6)]Gal(b1-4)Glc
# In short: as §1
# [24] = biological target: Neu5Ac(a2-3)Gal(b1-3)]Neu5Ac(a2-3)Gal(b1-4)]GlcNAc
# In short: as §1
# Neu5Ac(a2-3)Gal(b1-4)Glc = biological target: Neu5Ac(a2-3)Gal(b1-4)Glc
# In short: as §1
# [25] = biological target: Neu5Ac(a2-3)Gal(b1-4)GlcNAc
# In short: as §1
# [26] = biological target: Neu5Ac(a2-3)Gal(b1-4)GlcNAc(b1-2)Man
# In short: as §1
# [27] = biological target: Neu5Ac(a2-3)Gal(b1-4)GlcNAc(b1-2)Man(a1-3)[GlcNAc(b1-4)][Neu5Ac(a2-3)Gal(b1-4)GlcNAc(b1-2)Man(a1-6)]Man(b1-4)GlcNAc(b1-4)GlcNAc
# In short: as §1
# [28] = biological target: Neu5Ac(a2-3)Gal(b1-4)GlcNAc(b1-2)Man(a1-3)[Neu5Ac(a2-3)Gal(b1-4)GlcNAc(b1-2)Man(a1-6)]Man(b1-4)GlcNAc(b1-4)GlcNAc
# In short: as §1
# [29] = biological target: Neu5Ac(a2-3)Gal(b1-4)GlcNAc(b1-2)Man(a1-3)[Neu5Ac(a2-3)Gal(b1-4)GlcNAc(b1-2)Man(a1-6)]Man(b1-4)GlcNAc(b1-4)[Fuc(a1-6)]GlcNAc
# In short: as §1
# [30] = biological target: Neu5Ac(a2-3)Gal(b1-4)GlcNAc(b1-2)Man(a1-3)[Neu5Ac(a2-6)Gal(b1-4)GlcNAc(b1-2)Man(a1-6)]Man(b1-4)GlcNAc(b1-4)GlcNAc
# In short: as §1
# [31] = biological target: Neu5Ac(a2-3)Gal(b1-4)GlcNAc(b1-2)[Neu5Ac(a2-3)Gal(b1-4)GlcNAc(b1-4)]Man(a1-3)[GlcNAc(b1-4)][Neu5Ac(a2-3)Gal(b1-4)GlcNAc(b1-2)[Neu5Ac(a2-3)Gal(b1-4)GlcNAc(b1-6)]Man(a1-6)]Man(b1-4)GlcNAc(b1-4)GlcNAc
# In short: as §1
# [32] = biological target: Neu5Ac(a2-3)Gal(b1-4)GlcNAc(b1-2)[Neu5Ac(a2-3)Gal(b1-4)GlcNAc(b1-4)]Man(a1-3)[GlcNAc(b1-4)][Neu5Ac(a2-3)Gal(b1-4)GlcNAc(b1-4)Man(a1-6)]Man(b1-4)GlcNAc(b1-4)GlcNAc
# In short: as §1
# [33] = biological target: Neu5Ac(a2-3)Gal(b1-4)GlcNAc(b1-2)[Neu5Ac(a2-3)Gal(b1-4)GlcNAc(b1-6)]Man(a1-6)[Neu5Ac(a2-3)Gal(b1-4)GlcNAc(b1-2)Man(a1-3)]Man(b1-4)GlcNAc(b1-4)GlcNAc
# In short: as §1
# [34] = biological target: Neu5Ac(a2-3)Gal(b1-4)GlcNAc(b1-2)[Neu5Ac(a2-3)Gal(b1-4)GlcNAc(b1-6)]Man(a1-6)[Neu5Ac(a2-3)Gal(b1-4)GlcNAc(b1-2)Man(a1-3)][GlcNAc(b1-4)]Man(b1-4)GlcNAc(b1-4)GlcNAc
# In short: as §1
# [35] = biological target: Neu5Ac(a2-3)Gal(b1-4)GlcNAc(b1-3)Gal
# In short: as §1
binder,measurement,setting,value
DrGal9 (Danio rerio) (protein) MAFYQQPPYYNPRIPFSGPIQGGLQDGKSIIISGRVLPGANRFHVNLQCGSHSEANVALHFNPRYEDTDYVVNNSYLNRTWGSEERKYESPFAQGQTFTLQILVAQDKYKISTNGRHFMDYKHRIPFTQVDTVAVEGMVEVNSVAFQNPAGFIPPQAGYAPQYAVPPGCGFPAFPSAPNYTIPHKTVMNGGLHPGKNIVINGVVNPNAKSIIFNLCYRSGIAFHYNPRFDENVVVRNTNQMEKWGAEERFGGLPFHKGQPFQVTISCNPQHYNVFVNGKQEHTYKHRYTKLNDIDILEICGDLQLTSVQA,glycan array binding signal (z-score),Neu5Ac(a2-3)Gal,-0.392
same,glycan array binding signal (z-score),[1],-0.307
same,glycan array binding signal (z-score),[2],0.159
same,glycan array binding signal (z-score),[3],-0.279
same,glycan array binding signal (z-score),[4],-0.335
same,glycan array binding signal (z-score),[5],-0.396
same,glycan array binding signal (z-score),[6],-0.385
same,glycan array binding signal (z-score),[7],0.058
same,glycan array binding signal (z-score),[8],0.148
same,glycan array binding signal (z-score),[9],-0.417
same,glycan array binding signal (z-score),[10],-0.336
same,glycan array binding signal (z-score),[11],-0.149
same,glycan array binding signal (z-score),[12],0.238
same,glycan array binding signal (z-score),[13],0.595
same,glycan array binding signal (z-score),[14],-0.344
same,glycan array binding signal (z-score),[15],-0.623
same,glycan array binding signal (z-score),[16],-0.117
same,glycan array binding signal (z-score),[17],-0.144
same,glycan array binding signal (z-score),[18],-0.401
same,glycan array binding signal (z-score),[19],-0.369
same,glycan array binding signal (z-score),[20],-0.319
same,glycan array binding signal (z-score),[21],-0.395
same,glycan array binding signal (z-score),[22],-0.38
same,glycan array binding signal (z-score),[23],-0.222
same,glycan array binding signal (z-score),[24],-0.373
same,glycan array binding signal (z-score),Neu5Ac(a2-3)Gal(b1-4)Glc,0.1
same,glycan array binding signal (z-score),[25],-0.249
same,glycan array binding signal (z-score),[26],-0.371
same,glycan array binding signal (z-score),[27],0.144
same,glycan array binding signal (z-score),[28],0.99
same,glycan array binding signal (z-score),[29],0.313
same,glycan array binding signal (z-score),[30],0.136
same,glycan array binding signal (z-score),[31],0.563
same,glycan array binding signal (z-score),[32],0.353
same,glycan array binding signal (z-score),[33],-0.205
same,glycan array binding signal (z-score),[34],0.257
same,glycan array binding signal (z-score),[35],-0.061
